From the BET-seq Pho4 binding data (Le et al. 2018)
Some of the results follow. The energies were worked out here from pooled read counts, against the library average; single values are noisy.

Biological target: T1, Pho4 (S. cerevisiae) (UniProt P07270)
T1 sequence: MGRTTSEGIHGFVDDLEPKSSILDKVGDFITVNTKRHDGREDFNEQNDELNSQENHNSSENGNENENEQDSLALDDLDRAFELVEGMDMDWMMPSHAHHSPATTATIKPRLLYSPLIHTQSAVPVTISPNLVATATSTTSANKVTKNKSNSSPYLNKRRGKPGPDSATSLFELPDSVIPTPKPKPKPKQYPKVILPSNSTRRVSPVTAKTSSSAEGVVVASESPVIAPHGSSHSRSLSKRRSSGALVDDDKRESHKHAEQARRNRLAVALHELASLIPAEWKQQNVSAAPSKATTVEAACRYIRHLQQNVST
Experiment: relative binding free energy (BET-seq); higher = weaker binding
Conditions: reference: library average

Sequence	relative binding free energy [kcal/mol]
CGCTGCACGTGGGTTT	-0.15
TATGGCACGTGACGGT	-0.16
TTTCACACGTGCTTGT	-0.08
GTTAGCACGTGCGGTT	-0.1
CATATCACGTGTATTT	-0.02
TAGCGCACGTGGGTTA	-0.22
TGAGGCACGTGTAAGA	0.03
TTTCACACGTGATGTA	0
AGGAGCACGTGGCGAG	-0.11
TTGGGCACGTGATTGC	-0.06
TTGTACACGTGTGCGA	0
TTAGACACGTGCAGTT	-0.11
TTGGGCACGTGCTGAC	-0.05
ACAGTCACGTGTGGTT	0.09
AGTTGCACGTGAGTTC	0.38
AAATTCACGTGTTCTT	0.2
TAGTACACGTGTGTTT	0.06
GGTTTCACGTGACTGT	0.31
CGTTACACGTGTTTCT	0.29
TTACGCACGTGATAGG	0
ATGTCCACGTGGTGAG	-0.12
GTTGACACGTGGTTAT	0.01
CGAGCCACGTGTGGTT	0.07
AATAGCACGTGGGGAA	-0.18
TCGGGCACGTGGCGAG	-0.22
TTCGTCACGTGGTACT	0.06

Sequence	relative binding free energy [kcal/mol]
ATGGGCACGTGGGGTT	-0.2
TTTTACACGTGGATTG	0.07
AGCGTCACGTGGGGCA	-0.14
TTGTGCACGTGGGATC	-0.04
ATGTGCACGTGAGTCT	0.13
AAGTTCACGTGTAATG	0.24
GATGACACGTGTGTTT	0.17
CGTGGCACGTGATCGG	0.03
GGAGACACGTGTCTGG	0.11
TCGTTCACGTGTCTTG	0.43
CTTGACACGTGTTTTA	0.09
AGGAGCACGTGAGTTG	0.19
ATTGTCACGTGTGTGG	0.06
TATGGCACGTGAGGTT	0.16
CGATCCACGTGTGTTT	0.25
CGGATCACGTGCGTTG	0.22
AGCGGCACGTGGTGCG	-0.08
ATAAACACGTGAGGTG	0.01
ACGTGCACGTGTGCGA	-0.07
TTTTGCACGTGTCGTG	0
AGAGTCACGTGTGGAT	0.2
GTAGACACGTGTGAAG	0.25
TGTAGCACGTGGGGTT	-0.12
ATGTTCACGTGAGTGG	0.3
ATGGTCACGTGTTCTC	0.33
CTCGGCACGTGAGTGG	-0.03

Sequence	relative binding free energy [kcal/mol]
AAATACACGTGGGTAG	-0.11
GAATGCACGTGGCATG	0.06
TAGCTCACGTGAGGGC	0.41
GGGACCACGTGTTAGT	0.05
GTTGGCACGTGTGCAT	-0.16
AAGTGCACGTGAGGTC	0.2
TTGTGCACGTGTTACA	0.04
GATAGCACGTGTTATG	-0.08
GCGGTCACGTGGTCGG	-0.02
ATGTCCACGTGGGATG	-0.08
ATACTCACGTGTTGTG	0.24
TACTGCACGTGGGAGG	-0.06
CTGGGCACGTGGGTTT	-0.14
CTGGGCACGTGTATGG	0.02
AGTAACACGTGCGGGG	-0.02
TGGGTCACGTGCCGGA	0.01
GTGGTCACGTGGATCG	0.09
GAGGGCACGTGAATAG	0.3
CCTGTCACGTGTGAGT	0.11
ATGGCCACGTGGAAGG	-0.04
TTGGCCACGTGGGTAT	-0.26
ATGGTCACGTGGCTTA	0.03
ATACGCACGTGGGTGT	-0.45
GTCTTCACGTGGCAGG	0.29
GGGGACACGTGTGTCA	0
CTGAGCACGTGTGTAT	-0.02

Sequence	relative binding free energy [kcal/mol]
TTGCGCACGTGCGGGT	-0.09
TGTGACACGTGCTCTT	0.01
GTAGTCACGTGAGCTT	0.38
TTTGGCACGTGGTGAC	-0.23
TGTTACACGTGGCGGA	0.07
TTTCTCACGTGTGTCA	0.16
GTTTACACGTGGACTT	0.14
GGAGCCACGTGGGGTA	-0.35
TGTTTCACGTGAAGTA	0.36
TTAGGCACGTGCTGAG	-0.21
GTAGTCACGTGGAAAG	0.21
TGTAGCACGTGTGGGG	0.01
ACAGCCACGTGGGTGG	-0.25
CTCTGCACGTGAGTGG	0.21
TTAAGCACGTGGTCTG	-0.23
TGAAGCACGTGGTATA	-0.18
GGTTTCACGTGTTAGG	0.34
ATCGACACGTGGGTGG	-0.19
TGTTACACGTGTCTTG	0.11
ATTGCCACGTGTGTGA	-0.1
GGGGACACGTGCGGCT	-0.02
AGTGGCACGTGACGGT	-0.06
TTTGCCACGTGTTCGG	-0.08
TGAATCACGTGCAGTT	0.24
TAGTGCACGTGGGTCA	-0.23
CATATCACGTGTGGGG	0.3

Sequence	relative binding free energy [kcal/mol]
GTGTTCACGTGGGAAG	0.29
TCGGGCACGTGGTCGA	-0.23
TCTAGCACGTGGTTAT	-0.17
TTTGCCACGTGCGTGA	-0.12
AGTTGCACGTGCATGT	-0.13
CTGTACACGTGACGGG	0.21
TTTTACACGTGACTTT	0.2
TTGATCACGTGGTGCC	0.16
AATGTCACGTGAGTCG	0.1
CAGGGCACGTGATAGG	-0.09
AATTGCACGTGAGGGT	0.24
ATTAGCACGTGTAGTA	0.04
TCAGGCACGTGAGGCG	0.07
AAATGCACGTGTGGTG	0.04
TAGGACACGTGTCGTG	-0.05
AGGCGCACGTGCGGGG	-0.28
AGTTTCACGTGCTAGT	0.21
GAAAGCACGTGGGATT	-0.06
GTGTCCACGTGTTGTT	0.05
GCGTGCACGTGGGTTC	0.02
CTATTCACGTGCTTGT	0.17
GAAGTCACGTGGGGTT	0.03
TGGTGCACGTGTCGTT	0.08
GTAAGCACGTGGTGCG	-0.08
AGAGTCACGTGCGTTG	0.11
CTGTCCACGTGGGAGG	-0.09

Sequence	relative binding free energy [kcal/mol]
ATGCGCACGTGTCAGG	-0.01
GGTGTCACGTGGGAAC	0.14
GCGAGCACGTGTTGGT	0.08
TTCCACACGTGGTGTA	0.09
GTGATCACGTGATTGT	0.48
AGGACCACGTGGGTTT	-0.05
GGTGCCACGTGGAGGC	-0.11
GTGGCCACGTGAGCTG	0.26
GGGTGCACGTGTCGAG	0.07
GTGTACACGTGGTTCT	0.04
GGAGTCACGTGTTCGA	0.22
ATGTGCACGTGAACTT	0.14
GGTGTCACGTGGAAGC	0.17
TTTTACACGTGGTGCT	0.08
TGGTACACGTGGATGG	0.05
GTGGGCACGTGGGGGC	-0.14
GTGAACACGTGTAATA	0.16
ATTGTCACGTGCTATA	-0.11
TAGTCCACGTGTTGTG	-0.03
TCGGGCACGTGGCAGT	-0.09
GACGGCACGTGGGGGT	-0.09
GAAGTCACGTGTTTTT	0.12
GTTAACACGTGTATGC	0.06
CGGTTCACGTGGGCAG	0.17
TTTCACACGTGGGATT	0.02
AGCTGCACGTGATTGA	0.2

Sequence	relative binding free energy [kcal/mol]
CAAATCACGTGTTGTT	0.08
ATATTCACGTGTTTTC	0.22
TTAGTCACGTGCTCTG	0.08
AGTTTCACGTGGTGTG	0.24
ATGCTCACGTGAGGGA	0.33
TGCTTCACGTGGGTGG	0.13
CTTCGCACGTGTTTTA	0.06
CAAAGCACGTGGGGGA	-0.22
AAAGACACGTGTAGAG	0.24
GATTACACGTGGGCGG	0.04
TGTAGCACGTGTAGGC	-0.17
ATTTTCACGTGATACT	0.26
ATTTTCACGTGAATGG	0.37
GATGACACGTGTTGTA	-0.03
CAGATCACGTGTGTGT	0.17
TGATGCACGTGGTGGC	-0.12
ATGCGCACGTGGTGTA	-0.25
TAATACACGTGGTTAG	-0.01
TGGACCACGTGCGTGG	-0.12
CTGTGCACGTGGAGGC	-0.21
GCGAGCACGTGTTTGG	-0.11
CGTTTCACGTGCGCGT	0.22
TGAGACACGTGATGAT	0.19
CAATTCACGTGGGTAG	0.22
TCGGGCACGTGAGCGT	0.05
TTGTACACGTGATATA	0.13

Sequence	relative binding free energy [kcal/mol]
GGGGGCACGTGTCTAT	-0.13
TTATTCACGTGGGACG	0.21
TTTTTCACGTGTCGTT	0.41
GTGTGCACGTGAATTA	0.31
AGATGCACGTGTGAGG	0.05
GGCTTCACGTGTTTAT	0.28
GAGTTCACGTGATAGT	0.3
ACAAGCACGTGGGGGC	-0.18
TGATTCACGTGAATAG	0.32
TTGTGCACGTGGTACG	-0.16
GTGCGCACGTGACGTG	-0.06
TGTTGCACGTGCTTGA	0.07
TTGTGCACGTGACGGC	0.13
GATTACACGTGAGGGC	0.36
TGGGGCACGTGAGAAC	0.15
GGGGTCACGTGTGTTA	0.2
GATTGCACGTGGTTTG	0.03
TTGGGCACGTGCTGGG	-0.1
CGTCACACGTGCGGGG	-0.04
ATATCCACGTGATGGT	0.09
CTTTTCACGTGGGTGG	0.2
CATATCACGTGTTTAT	0.19
CGCTTCACGTGTTGTG	0.12
TAGTCCACGTGGTTGG	-0.01
CGAGGCACGTGAGTGT	0.22
GGGGCCACGTGCGGCG	-0.07

Sequence	relative binding free energy [kcal/mol]
TGGTACACGTGCTTGG	0.08
AATTGCACGTGGAGTT	0
GGAAGCACGTGGGCTA	-0.13
TGTCACACGTGAGGTA	0.2
GGATGCACGTGTGATT	0.06
TAGTGCACGTGCGCTG	-0.05
GGCTTCACGTGTAGGT	0.25
GTGTGCACGTGAGCAT	0.26
TCGTCCACGTGTGAGG	0.14
GTGGGCACGTGGACGA	-0.18
GGGTGCACGTGTGCGG	0.08
TGTGGCACGTGTTTCC	0.03
GAGGTCACGTGGCATG	0.04
ACGGGCACGTGTGGGC	-0.06
TGCGGCACGTGTATGA	-0.12
GTGTTCACGTGATCAG	0.3
TGAGGCACGTGTTTAG	-0.17
AATAACACGTGGTTTT	-0.01
TGTACCACGTGAAGGG	0.27
GATTTCACGTGGGTAA	0.21
GGTGGCACGTGCATTT	-0.02
GAAGGCACGTGGTCGT	-0.22
